Measurements as given in the antibiotic and cytotoxicity screens of Wong et al. (2023).
The other results are listed elsewhere or left out.

Experiments:
HSkMC = human skeletal muscle cells; test: cytotoxicity call (relative viability < 0.9); settings: 10 µM
HepG2 = test: cytotoxicity call (relative viability < 0.9); settings: 10 µM
S. aureus RN4220 = test: growth inhibition call (relative growth <= 0.2); settings: 50 µM

| SMILES | cytotoxicity call (HSkMC) | cytotoxicity call (HepG2) | growth inhibition call (S. aureus RN4220) |
| --- | --- | --- | --- |
| O=C(C=Cc1ccc(O)cc1)c1ccc(O)cc1O | inactive | inactive | inactive |
| Cc1ccc(S(=O)(=O)Nc2ccc3c(c2)C(=O)N([C@@H](C)CO)C[C@H](C)[C@H](CN(C)C(=O)C2CCCCC2)OCCCC[C@H](C)O3)cc1 | inactive | inactive | inactive |
| O[C@H]1CCCSc2ccccc21 | inactive | inactive | inactive |
| O=C(N[C@@H]1CC[C@H](CC(=O)N2CCOCC2)O[C@H]1CO)c1ccc2c(c1)OCO2 | inactive | inactive | inactive |
| C[C@@H]1CN([C@H](C)CO)S(=O)(=O)c2ccc(C#Cc3ccncc3)cc2O[C@@H]1CN(C)C(=O)C1CCC1 | inactive | active | inactive |
| C[C@@H]1CCCCO[C@@H](CN(C)C(=O)Nc2cccc3ccccc23)[C@@H](C)CN([C@H](C)CO)C(=O)c2cc(NS(=O)(=O)c3ccc(F)cc3)ccc2O1 | inactive | inactive | inactive |
| Cc1noc(C)c1NC(=O)Nc1ccc2c(c1)CC(=O)N([C@H](C)CO)C[C@H](C)[C@H](CN(C)Cc1ccc(C(F)(F)F)cc1)O2 | inactive | inactive | inactive |
| C[C@@H]1CN([C@@H](C)CO)C(=O)Cc2cc(NC(=O)Nc3ccc(F)cc3)ccc2O[C@H]1CN(C)C(=O)Nc1cccc2ccccc12 | inactive | inactive | inactive |
| C[C@H](CO)N1C[C@H](C)[C@H](CN(C)S(=O)(=O)c2cn(C)cn2)Oc2ncc(-c3cc4ccccc4o3)cc2C1=O | inactive | inactive | inactive |
| O=C(CCc1cn(CC[C@@H]2OC(=O)[C@H](Cc3ccccc3)N3CC4=CC(=O)[C@H](C5CC5)[C@H]4[C@H]23)nn1)NO | inactive | inactive | inactive |
| COc1ccc(S(=O)(=O)Nc2ccc3c(c2)C(=O)N([C@@H](C)CO)C[C@@H](C)[C@H](CN(C)CC2CC2)O3)cc1 | inactive | inactive | inactive |
| COc1ccc(NC(=O)N(C)C[C@H]2OCCCC[C@H](C)Oc3ccc(NC(=O)NC(C)C)cc3C(=O)N([C@@H](C)CO)C[C@@H]2C)cc1 | inactive | inactive | inactive |
| CCCNc1ncnc(N)c1[N+](=O)[O-] | inactive | inactive | inactive |
| COc1ccc(NC(=O)N(C)C[C@@H]2Oc3ccc(NC(=O)C4CC4)cc3CC(=O)N([C@H](C)CO)C[C@@H]2C)cc1 | inactive | inactive | inactive |
| C[C@@H]1CN([C@@H](C)CO)C(=O)Cc2cc(NS(=O)(=O)c3ccc(Cl)cc3)ccc2O[C@@H]1CN(C)Cc1ccc(C(=O)Nc2ccccc2N)cc1 | inactive | inactive | inactive |
| COC(=O)CC1(N)CCCCC1 | inactive | inactive | inactive |
| C[C@H](CO)N1C[C@H](C)[C@@H](CN(C)S(=O)(=O)c2ccccc2)Oc2ccc(NS(=O)(=O)c3ccccc3)cc2CC1=O | inactive | inactive | inactive |
| O=c1[nH]cc(S(=O)(=O)N2CCN(c3ccccc3F)CC2)c(=O)[nH]1 | inactive | inactive | inactive |
| C[C@H]1CN([C@@H](C)CO)C(=O)c2cc(NC(=O)Nc3cccc4ccccc34)ccc2O[C@@H]1CN(C)CC1CCCCC1 | inactive | inactive | inactive |
| Cn1cnc(S(=O)(=O)N[C@@H]2CC[C@H](CC(=O)NCC3CC3)O[C@@H]2CO)c1 | inactive | inactive | inactive |

| SMILES | cytotoxicity call (HSkMC) | cytotoxicity call (HepG2) | growth inhibition call (S. aureus RN4220) |
| --- | --- | --- | --- |
| COCC#Cc1ccc2c(c1)O[C@H](CN(C)Cc1ccccc1F)[C@H](C)CN([C@@H](C)CO)S2(=O)=O | inactive | inactive | inactive |
| CC(=O)NS(=O)(=O)c1ccc(N)cc1 | inactive | inactive | inactive |
| COc1ccc(C(=O)Nc2cccc(CN3C(=O)[C@@]4(O[C@@H](CC(=O)N(CCO)Cc5ccccc5)[C@H]([Si](C)(C)c5ccc(OC)cc5)[C@H]4C)c4ccccc43)c2)cc1 | inactive | active | inactive |
| COc1ccc(NC(=O)Nc2ccc3c(c2)C(=O)N([C@H](C)CO)C[C@H](C)[C@@H](CN(C)S(=O)(=O)c2ccccc2)OCCCC[C@H](C)O3)cc1 | inactive | inactive | inactive |
| CC(C)NC(=O)N[C@@H]1C=C[C@H](CC(=O)NCCN2CCCC2)O[C@H]1CO | inactive | inactive | inactive |
| Cc1ccc(CN)cc1Cl | inactive | inactive | inactive |
| Cc1noc(C)c1NC(=O)Nc1ccc2c(c1)C(=O)N([C@@H](C)CO)C[C@@H](C)[C@H](CN(C)C(=O)Nc1ccccc1)OCCCC[C@@H](C)O2 | inactive | inactive | inactive |
| C[C@@H]1CN([C@H](C)CO)C(=O)c2cc(NC(=O)NC3CCCCC3)ccc2O[C@@H]1CN(C)Cc1ccc(C(F)(F)F)cc1 | inactive | inactive | inactive |
| C[N+](C)(C)CCO.Cn1c(=O)c2[n-]cnc2n(C)c1=O | inactive | inactive | inactive |
| Cc1noc(C)c1NC(=O)N(C)C[C@@H]1Oc2c(NC(=O)C3CCOCC3)cccc2C(=O)N([C@@H](C)CO)C[C@H]1C | inactive | inactive | inactive |
| CO[C@@H](CN(C)S(=O)(=O)c1cccc(Cl)c1)[C@@H](C)CN([C@@H](C)CO)S(=O)(=O)c1cccc(Cl)c1 | inactive | inactive | inactive |
| CCS(=O)(=O)Nc1ccc2c(c1)C(=O)N(C)C[C@@H](OC)[C@H](C)CN(Cc1nccs1)[C@H](C)CO2 | inactive | inactive | inactive |
| Cc1noc(C)c1S(=O)(=O)N(C)C[C@H]1OCCCC[C@H](C)Oc2ccc(N(C)C)cc2C(=O)N([C@H](C)CO)C[C@@H]1C | inactive | inactive | inactive |
| O=C(Nc1nnc2n1CCS2)C1CC1 | inactive | inactive | inactive |
| CO[C@@H]1CN(C)C(=O)c2cc(NC(=O)c3ccc(F)cc3)ccc2OC[C@@H](C)N(C(=O)CN(C)C)C[C@H]1C | inactive | inactive | inactive |
| C[C@H]1CN([C@@H](C)CO)C(=O)Cc2cc(NC(=O)Cn3cnnn3)ccc2O[C@@H]1CN(C)CC1CCCCC1 | inactive | inactive | inactive |
| COCC(=O)N1c2ccccc2C[C@H]1C(N)=O | inactive | inactive | inactive |
| COc1ccc(S(=O)(=O)Nc2cccc3c2O[C@H](CN(C)S(=O)(=O)c2ccc(C)cc2)[C@@H](C)CN([C@@H](C)CO)C3=O)cc1 | inactive | inactive | inactive |
| Cc1noc(C)c1NC(=O)N(C)C[C@H]1OCCCC[C@@H](C)Oc2ccc(NC(=O)C3CCCCC3)cc2C(=O)N([C@@H](C)CO)C[C@H]1C | inactive | inactive | inactive |
